In the supplement of paper PMC3334620:
In all, about 33,000 sequences were measured (“E-score (-0.5 to 0.5)”: median about -0.017, highest 2% from about 0.3 on). The list shows a part of the results.

target: T1, Sut1 (UniProt P53032); assay: PBM E-score (8-mer binding enrichment) (E-score (-0.5 to 0.5)); higher = stronger / more preferred TF binding; most listed sequences are background and not binding sites; settings: protein concentration: 200 nM; construct: GST-full length
T1 sequence: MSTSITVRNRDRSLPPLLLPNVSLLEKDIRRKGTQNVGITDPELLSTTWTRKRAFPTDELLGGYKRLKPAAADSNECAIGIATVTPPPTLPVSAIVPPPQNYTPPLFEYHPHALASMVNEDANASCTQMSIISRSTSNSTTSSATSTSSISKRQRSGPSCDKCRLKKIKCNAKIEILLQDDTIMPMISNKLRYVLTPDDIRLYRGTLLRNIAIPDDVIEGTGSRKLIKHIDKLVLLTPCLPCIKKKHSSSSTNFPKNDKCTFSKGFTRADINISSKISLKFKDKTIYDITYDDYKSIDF
Outline: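 Masliner-normalised scans of fluorescent anti-GST signal were the basis for scoring. That signal came from GST-tagged yeast transcription factors applied at about 100-200 nM to double-stranded universal all-10-mer Agilent arrays on fresh or once-stripped slides. Each ungapped eight-base word, pooled with its reverse complement, received an E-score from the Universal PBM Analysis Suite.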

| Sequence | PBM E-score |
| --- | --- |
| CCCGTCGA | -0.208 |
| ACTGCTAG | -0.173 |
| AGGGGGGG | -0.464 |
| AGACTTTG | -0.115 |
| CCAAGGAA | -0.0992 |
| AATTTTGA | 0.206 |
| GATCAGTA | 0.109 |
| ACGCCGGA | 0.239 |
| ACGGAATA | 0.202 |
| AAACACCC | 0.063 |
| CCCGTCGC | -0.153 |
| AGAGCTTG | -0.0909 |
| AGCCCGTA | -0.126 |
| ACGAAGAA | 0.201 |
| ATTCACAG | -0.0815 |
| ATGAGAGG | -0.0408 |
| GCCACTCC | 0.0702 |
| AACGTTTA | -0.0621 |
| GTACGATA | -0.0185 |
| AAACATGT | 0.14 |
| CGTCATAA | 0.134 |
| CCAACTGA | -0.08 |
| GTTGCACA | -0.176 |
| AAATCCAC | 0.0815 |
| CAAAATTA | 0.241 |

| Sequence | PBM E-score |
| --- | --- |
| CTGCTTCA | -0.299 |
| CCCCAAGG | -0.296 |
| AACCGGGT | -0.182 |
| ACACAGAA | 0.0759 |
| CAGGTCAG | -0.204 |
| GCAGGTCA | -0.167 |
| GGAAACGA | 0.0755 |
| AAGCAGCC | -0.105 |
| AGAATTAA | 0.141 |
| TCCGCCGA | 0.134 |
| AACCGGTT | 0.118 |
| AATGCCAT | 0.12 |
| TCATATGA | 0.266 |
| ACGCTCTC | -0.0447 |
| CTAACGTA | -0.00176 |
| GGTATCTA | 0.061 |
| GTAATTAA | 0.161 |
| AGAGTGAC | -0.2 |
| CTATGTCA | -0.0412 |
| ACTATTGG | -0.124 |
| CCTAATGA | -0.0128 |
| CGTTGAGA | 0.128 |
| AGGCTTTC | 0.108 |
| ACAACTTG | -0.0793 |
| ACACCACA | -0.0743 |

| Sequence | PBM E-score |
| --- | --- |
| ACCCTTGC | -0.271 |
| GATATAAA | 0.117 |
| GATTATGC | 0.0186 |
| ACGGCAAC | -0.113 |
| CCCGAGCG | 0.0794 |
| AAGAACCT | 0.00916 |
| ATGGAATG | 0.115 |
| AACGCACC | -0.164 |
| ACTGTATC | -0.0186 |
| ATACAGTC | -0.043 |
| ATCTTCGC | -0.00336 |
| GGAAATAA | 0.24 |
| AAAAGGGG | -0.146 |
| CGGGTTAA | -0.0456 |
| CGCCATCA | -0.246 |
| GGGGTGTA | -0.327 |
| CATGACGG | -0.123 |
| AGCACCTA | -0.171 |
| CCCCGGCA | 0.0139 |
| CATTACAG | -0.142 |
| AGGCATAG | -0.0231 |
| TCGTAGAA | 0.0134 |
| ATAGGTGC | -0.154 |
| CGAGATAA | 0.2 |
| ATAGCGTG | -0.123 |

| Sequence | PBM E-score |
| --- | --- |
| ATTGATTC | 0.237 |
| ACACATGA | 0.0583 |
| ACCGTCTG | -0.182 |
| AGGATAGC | 0.0235 |
| TCAACTGA | 0.00098 |
| AAATGGTG | 0.0677 |
| AACAGAAC | 0.0274 |
| TAGAAGGA | -0.102 |
| AGGCTCTG | -0.174 |
| CACCTTAC | -0.134 |
| CCGGGCCG | 0.155 |
| TATCCAGA | -0.0189 |
| CCACTGAA | 0.122 |
| AGCCGACC | -0.261 |
| CATTAGCC | -0.142 |
| GCTCTCTA | -0.093 |
| GCGTAAAA | 0.0981 |
| ATGCGATG | 0.0151 |
| ACGAGATG | -0.168 |
| CGTTGAAA | 0.00116 |
| CTTTTAGC | 0.0399 |
| TCACCAAA | 0.0811 |
| AACTCTAA | 0.217 |
| GGATGATA | 0.0477 |
| CTGGCCAG | -0.348 |

| Sequence | PBM E-score |
| --- | --- |
| GCGAGCAA | 0.0413 |
| CTCTAAAC | -0.0466 |
| CGCCGCAC | -0.0969 |
| CGACTGTC | -0.166 |
| AAGCCTGT | -0.00955 |
| CGCAAATC | -0.0911 |
| CTGCCACA | -0.22 |
| AGCACAAG | 0.0739 |
| ACGCTCAA | 0.0487 |
| CGCGCCCG | -0.254 |
| AGATCCGA | 0.145 |
| ATTTCCGC | 0.156 |
| CGAGAGCA | -0.0395 |
| CTTGAAAA | 0.0874 |
| AACCGGTC | 0.0286 |
| AGACCGGA | 0.277 |
| ATCCCCTA | -0.254 |
| AATTTCCC | 0.039 |
| GTTACCTA | -0.00806 |
| CAGGCTAA | -0.0895 |
| CGAAAACA | 0.123 |
| CTACTAAG | -0.0294 |
| GTAGTCTA | 0.00017 |
| CGGTACTA | 0.00756 |
| TGCATACA | 0.11 |

| Sequence | PBM E-score |
| --- | --- |
| TAAATTGA | 0.262 |
| ATCCCGAA | 0.111 |
| AGAGCATG | -0.211 |
| AATGTTCT | 0.108 |
| AGTAAACT | 0.0487 |
| AGCGCGTA | -0.0462 |
| GCGGACGA | 0.0485 |
| ACCTGAAG | 0.0289 |
| AAATAGGT | 0.0548 |
| AAGTCATG | 0.0221 |
| ACACATTC | 0.116 |
| AAATGAGA | 0.0241 |
| CACTGAGA | -0.272 |
| CGGCAGAG | -0.194 |
| AATCGTTG | 0.0316 |
| AGAGGGAA | -0.286 |
| CCGCAACC | 0.0294 |
| CCGGAATC | 0.326 |
| CGGGGCAC | -0.18 |
| CTACGGCC | -0.308 |
| TGAATGCA | 0.154 |
| CGTTCCCC | -0.118 |
| GGTAACGA | -0.111 |
| ACGTATGA | 0.175 |
| ACGATTTA | 0.215 |

| Sequence | PBM E-score |
| --- | --- |
| GGAATCCA | 0.0206 |
| AATATCAT | 0.273 |
| ACTCAACT | 0.218 |
| TCCACAAA | 0.095 |
| AATCCTAA | -0.0139 |
| GAAAGCTA | -0.139 |
| GATTTTCA | 0.136 |
| AGGGGTAG | -0.262 |
| AGACAGTA | 0.0419 |
| AACGTCTG | -0.155 |
| CATTCGAC | 0.0276 |
| CCGCAGGC | -0.079 |
| ACCCTACA | 0.024 |
| AATTGGGC | -0.0355 |
| CCTAGTGC | -0.117 |
| AAGCAGAA | 0.185 |
| ACCCCTCC | -0.281 |
| AAGCCACT | -0.0761 |
| CTAGCAAA | 0.124 |
| AAGGAGAT | 0.137 |
| ACGAGACT | -0.153 |
| ATTAGGGG | -0.154 |
